This is one part of the list.
Each sequence was assayed on PfSIP2 AP2 domain 1 (GST-tagged) (assay: gcPBM binding intensity (ln(normalized median fluorescence intensity)); higher = stronger DNA binding).
In short: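 In this array assay, P. falciparum DNA-binding domains with a GST tag, expressed in E. coli, were applied for 1 h to primer-extended double-stranded 36-bp intergenic genomic probes and negative controls on an Agilent 4 × 180k array. Bound protein was visualised with Alexa488 anti-GST antibody at 488 nm. Binding intensity is the highest Masliner-normalised natural-log median intensity across replicate spots of either probe orientation.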

Sequence	gcPBM binding intensity (ln)
GCCTATATGTTTAGTTGTACTCCTAATATTATTTGT [XGTACX_site6060]	7.16
CAAATTATTTCGAGGTGTACTTTTTTATATTATATT [XGTACX_site8309]	7.34
AATGTGTTCATATATGCACACGCATATATATTATTG [CACACA_site9274]	7.14
TATATAAATGGACACACACACACCTTATAATTATTA [CACACA_site6093]	7.17
TTTATAAATTGACACACACACATGTGAACATAAAAA [CACACA_site6978]	7.16
ATGTAACACATATTTGGTACAGATAGATAAAAGTAT [XGTACX_site8291]	7.3
GTATAATATATTTATAGTACATAATTATTTATAAAT [XGTACX_site1826]	7.16
TTTTTAAATAACCTATATATTATTATGAAACATAAA [CACACA_negctrl_site916]	6.86
TATATATATATATTCACACATAAAAATAAAATAAAA [CACACA_site4774]	8.88
ATATATATATATGTGTGTACTTATTTATTTATTTGT [XGTACX_site549]	9.27
TTTTCTTAATATTTATGTATATATATAATATGATAT [TGCATGCA_negctrl_site572]	6.99
TAATAAATCCTATATAGTACATATATGCAAGTATGT [XGTACX_site3955]	7.12
ACATTAATATAAAGCACACATATATATAATATATAT [CACACA_site508]	7.35
ATTGATTTTTAATATACACACATAAGTACCACAAAA [CACACA_site339]	7.3
AAAAATATAAACTGCACACACAAAAAAAAAAGAGAA [CACACA_site1367]	7.44
TATAACATATTTATATATGACATTATCTATTCATTT [CACACA_negctrl_site864]	6.84
CCCGTAAATACAAAAAGTACAAAAGTTCATCTTATA [XGTACX_site1154]	6.91
ATATTATGTGATTGTGCACACTGGAGATTTTTTTTA [CACACA_site1453]	9.01
CAATATTATTATATTTGTACACATGCGTATTTTTTA [XGTACX_site4154]	6.94
TTAATATTGTATCCAAGTACACAAATTATTATATTT [XGTACX_site8067]	7.11
CATGATATATAAATATGTACATATATATATATATAT [XGTACX_site1760]	9.56
TAATAATAATATAAAATACACACCTATTATTTTTAC [CACACA_site4003]	6.97

Sequence	gcPBM binding intensity (ln)
ATATAAATATAAACATGTACATATATATATATATAT [XGTACX_site2824]	9.04
GAAACGTTTTTGAGTAGTACACACACAATAAGGATG [XGTACX_site6809]	7.4
TTTGTAATAACATATGCATGTTCAAAAAATAAAATA [TGCATGCA_site817]	6.9
ATTTTTTTATAAAATTTTTTATATATTAAATATTAT [CACACA_negctrl_site135]	6.76
ACGTTTTATTTTTATTGTACTCACATTGAAATGAAT [XGTACX_site6094]	7.58
ATATATTTATACATTTGTACATATACATATTTCTGA [XGTACX_site3982]	7
ATTTTTTTTGTAAAAGTGCATATATATATATATATA	9.41
AAAATTGTGCTTTCACGGACACAAGATCGAAATAGA [XGTACX_site4068]	6.88
AAATTTATATAAAACAGTACAATTAAAAAAAAAATA [XGTACX_site8015]	6.92
ATTTATCTATATATATGTACATATTATTTTTGTGGT [XGTACX_site7390]	7.21
ATAAAAAAATATAAATGTACATATATATATATATAT [XGTACX_site5620]	9.56
GATATACAATTTAAGTGTACTATAATAAAATATATA [XGTACX_site3013]	6.98
TATATTAATTCGTTTTGTACACACATAATGAATAAT [XGTACX_site4618]	6.93
TTTAAAATATTGTATTGTACGCAATAAAAAATACCA [XGTACX_site182]	7.16
ATAAGCATCTTTTGTGTGCACATAACAAAAAAAAAA	8.74
ATTAAATAAAATCATGCACACAATATATATTTTAAG [CACACA_site2495]	7.97
TCTAACATATCTTTAATACACACTTAAAAAAGTACT [CACACA_site652]	7.03
AAATACATATATACATGTACATAAATATATATATAT [XGTACX_site5367]	8.9
ATAGATATACATATCACACATATATATATATATATA [CACACA_site4985]	9.84
TAAGGTAGTTCTGTATCACACACATATATATATATA [CACACA_site8693]	9.42
TGAGAAAGCGCATATTGTACTATATATTTTAACCAC [XGTACX_site4098]	7.19
AATCCATTCTATTTTTTACACACGTATGTAAATATT [CACACA_site8860]	7.07
